Measured values as given in PubChem BioAssay AID1671194 (National Center for Advancing Translational Sciences (NCATS), 2021).
Screen size: about 140,000 compounds; about 240 (0.17%) were called active. Inconclusive results, whose numbers are uncertain, are shown with a selection of clear calls. Calls follow the shape of the dose curve; as a rule, active = well fitted inhibition curve with a large enough effect; inconclusive = small, poorly fitted or top-dose-only effect; inactive = no such curve, though single readings can be large or run the other way. Potencies of inconclusive entries are doubtful fits and often do not repeat.

experiment: Primary qHTS assay for inhibitors of alpha-synuclein gene (SNCA) expression; details: HEK-293 SNCA-luciferase knock-in, luminescence, 24 h; series mostly up to 57.2 µM; also: nearly all actives have a fitted effect of over 45% in size
Potency is read from the fitted curve at half-maximal effect; tags tell the direction and shape of the fitted curve.

Row | Structure (SMILES) | Potency
1 | COc1ccccc1CN1CC[C@H]2COC(=O)N2c2cc(F)ccc2C1 | inconclusive: 12.6 µM [inhibitor, single point]
2 | COC(=O)[C@@H]1C[C@@H](N(C)C)CN1C(=O)c1ccccc1-c1ncc[nH]1 | inconclusive: 39.8 µM [inhibitor, single point]
3 | CNC(=O)N1C[C@@H](CN(C)C)[C@H](NC(=O)c2ccsc2)C1 | inactive
4 | CC(C)(C)CC(=O)N1CCCC(C(=O)Nc2cccc(-c3ccc(F)cc3)c2)C1 (stereo not given) | inactive
5 | COc1ccc2[nH]c(=O)c(CCC(=O)NCCCN3CCCCC3C)cc2c1 (stereo not given) | inactive
6 | Cc1cccc(OCC(=O)N2CCC[C@H]2c2nc(-c3ccc(F)cc3)n[nH]2)c1 | inconclusive: 1.58 µM [inhibitor, partial curve, poor fit]
7 | CC(C)C[C@@H]1N[C@H](C(=O)N2CCC(O)(c3ccccc3)CC2)Cc2cn(C)c3cccc1c23 | inconclusive: 7.94 µM [inhibitor, full curve, poor fit]
8 | O=C1NCCCc2[nH]c(-c3cc(-c4cccc(F)c4)no3)nc21 | inactive
9 | O=C(Cc1ccc(F)cc1)Nc1ccc2ncnc(N3CCCCC3)c2c1 | inactive
10 | COc1cc(F)ccc1-c1cc2c(ccn2C)c(C(=O)NCc2cccnc2)n1 | inactive
11 | O=C(CN1C(=O)COc2ccc(S(=O)(=O)NC3CCCC3)cc21)NCc1ccc(Cl)cc1 | inconclusive: 2 µM [inhibitor, full curve]
12 | CCC(=O)NCCc1nc2cc(NC(=O)c3cccc(Br)c3)ccc2n1C | inconclusive: 39.8 µM [inhibitor, single point]
13 | CCN(CC)C(=O)c1ccc2c(c1)N(Cc1ccc(C(F)(F)F)cc1)C(=O)c1ccccc1S2 | inconclusive: 15.8 µM [inhibitor, single point]
14 | C[C@@H](NC(=O)Nc1ccc(Cl)cc1)c1onc(-c2ccccc2)c1C(=O)O | inactive
15 | Cc1nn2c(=O)cc(COC(=O)c3cccc(NC(=O)COc4ccccc4C)c3)nc2s1 | inconclusive: 0.562 µM [inhibitor, full curve, poor fit]
16 | Cc1ncsc1CN1CCCCCNC(=O)CC1c1ccccc1 (stereo not given) | inconclusive: 39.8 µM [inhibitor, single point]
17 | O=C(CN1CC2CC(C1)[C@H]1CCCC(=O)N1C2)NCCCN1CCCc2ccccc21 (stereo not given in full) | inactive
18 | COCCN1C(=O)c2ccccc2C(C(=O)NC2CCCCC2)C12CCCC2 (stereo not given) | inconclusive: 8.91 µM [inhibitor, single point]
19 | O=C(Nc1cc(F)cc(F)c1)N1CCC(Oc2ncccc2C(=O)N2CCOCC2)C1 (stereo not given) | inconclusive: 14.1 µM [inhibitor, partial curve, poor fit]
20 | CC(C)Oc1ccccc1CN1C[C@@H](CO)[C@H](c2ccncc2)C1 | inconclusive: 8.91 µM [inhibitor, single point]

Row | Structure (SMILES) | Potency
21 | O=C(NC1CCCN(c2cc(-c3ccc(Cl)cc3)[nH]n2)C1)c1ccc2c(c1)OCO2 (stereo not given) | inactive
22 | Clc1ccc(-n2ncc3c(NC4CCCC4)ncnc32)cc1 | inactive
23 | CCN(CC)S(=O)(=O)c1ccc2c(c1)N(CC(=O)N1CCN(c3cccc(C)c3C)CC1)C(=O)CO2 | inconclusive: 8.91 µM [inhibitor, single point]
24 | COc1ccc(NC(=O)c2c(NC(=O)C(F)(F)F)sc3c2CCCCC3)cc1 | inconclusive: 7.94 µM [inhibitor, partial curve, poor fit]
25 | CCCCC1CCC(C(=O)N2CC(=O)Nc3ccc(C)cc3C2c2ccc(F)cc2)CC1 (stereo not given) | inconclusive: 22.4 µM [inhibitor, single point]
26 | COc1ccc(C(=O)N[C@@H]2CN(Cc3ccccc3)C[C@H]2CO)cn1 | inconclusive: 17.8 µM [inhibitor, single point]
27 | CCCS(=O)(=O)N1CC(=O)N(c2cccc(F)c2)C(C)(C(=O)NC2CCCCCC2)C1 (stereo not given) | inconclusive: 3.98 µM [inhibitor, partial curve, poor fit]
28 | O=C(CC1CCCN(c2cnn(CC3CC3)c(=O)c2)C1)NCc1cc(F)cc(F)c1 (stereo not given) | inconclusive: 39.8 µM [inhibitor, single point]
29 | O=C(O)c1cccc(CN2CC(CNc3ccccc3)C3(C2)CN(c2ccccc2)C3)c1 (stereo not given) | inactive
30 | COc1cccc2cc(C(=O)Nc3ccc(CC(=O)O)cc3)c(=O)oc12 | inconclusive: 0.891 µM [inhibitor, full curve, poor fit]
31 | Cc1ccc(C)c(-c2cc3c(=O)n(CCNC(=O)c4ccccc4Cl)ccn3n2)c1 | inconclusive: 12.6 µM [inhibitor, partial curve, poor fit]
32 | O=C(Nc1ccc(Cl)cc1)N1CCC2(CC1)CCN(Cc1cccs1)c1ccccc1O2 | inconclusive: 20 µM [inhibitor, single point]
33 | CCCCN1CC(c2nc3ccccc3n2CCCCOc2cc(C)cc(C)c2)CC1=O (stereo not given) | inconclusive: 39.8 µM [inhibitor, single point]
34 | Cn1cc(CN2CCOC[C@H]2c2ncc(-c3cccc(F)c3)[nH]2)c2ccccc21 | inconclusive: 56.2 µM [inhibitor, single point]
35 | O=C1N(Cc2ccccn2)C[C@H]2CN(Cc3ccc(C(F)(F)F)cc3)CCN12 | inconclusive: 12.6 µM [inhibitor, partial curve]
36 | CCn1c2c(c(=O)n3ncc(C(=O)Nc4cc(Cl)ccc4OC)c13)CN(Cc1ccc(OC)cc1)CC2 | inconclusive: 2.82 µM [inhibitor, partial curve, poor fit]
37 | Cc1ccc(S(=O)(=O)NC[C@H]2O[C@@H](CC(=O)N3CCN(c4ccccn4)CC3)[C@H](O)[C@@H]2O)cc1 | inactive
38 | Cc1cc(C(=O)N2C[C@@H](CO)[C@H](c3ccncc3)C2)on1 | inconclusive: 1 µM [inhibitor, full curve, poor fit]
39 | O=C1NC2(CCN([S+](=O)([O-])c3ccccc3)C2)Oc2ccccc21 (stereo not given) | inactive
40 | Cc1cc(=O)n(CC(=O)Nc2ccccc2C)c(N2CCc3ccccc3C2)n1 | inconclusive: 39.8 µM [inhibitor, single point]
